# Measured values taken from PubChem BioAssay AID1347073 (National Center for Advancing Translational Sciences (NCATS), 2019).
# Out of some 45,000 compounds screened, about 200 (0.44%) were called active. Another 7% or so got no clear call; they are omitted. Calls follow the shape of the dose curve; as a rule, active = well fitted activation curve with a large enough effect; inconclusive = small, poorly fitted or top-dose-only effect; inactive = no such curve, though single readings can be large or run the other way. The list shows a part of the results.
# Test: qHTS of TDP-43 Inhibitors: NCGC Sytravon Library Screen; also: 0% is about no effect; nearly all actives have a fitted effect of over 55% in size
# Conditions: yeast TDP-43 toxicity rescue, BacTiter-Glo growth, 24 h; series mostly up to 46.1 µM; growth rescue (activation): at the top concentration
# Outline: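 TDP-43-expressing yeast, pregrown in raffinose, seeded at OD600 0.02 in galactose medium with compound for 24 hr at 30 deg C. Growth read by BacTiter-Glo luminescence, so rescue of toxicity appears as activation.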
row,Compound,growth rescue (activation)
1,O=C(COC(=O)CNC(=O)c1ccccc1)Nc1ccc(Cl)cn1,inactive: -0.187%
2,Cc1ccc(/C=N/NC(=O)c2ccncc2)s1,inactive: 11.5%
3,O=[N+]([O-])c1ccc(/C([O-])=C(/C(=S)Nc2ccccc2F)[n+]2ccccc2)cc1,inactive: 14.8%
4,O=C(NCCO)c1ccc2nc(-c3ccco3)c(-c3ccco3)nc2c1,inactive: 0.776%
5,CC(=O)Nc1ccc(Oc2nc(-c3cccnc3)nc3sc4c(c23)CCCC4)cc1,inactive: 25.9%
6,COc1ccc(/C=C/C(=O)Nc2ccncc2)cc1OC,inactive: 5.39%
7,COCCn1c(C)cc(C(=O)COC(=O)c2ccc(S(=O)(=O)N(C)C)cc2)c1C,inactive: 3.42%
8,COc1ccc(C(CNC(=O)c2cccc3cccnc23)N(C)C)cc1 (stereo unspecified),inactive: 4.04%
9,CC(C)S(=O)(=O)NC(=O)C1(C)CCN1C(=O)Cc1ccccc1Cl (stereo unspecified),inactive: 10.2%
10,CCOc1cc2[nH]c(=S)n(C3CCN(Cc4ccccc4)CC3)c(=O)c2cc1OCC,inactive: 5.29%
11,Cc1ccc(S(=O)(=O)NCCC(=O)Nc2ccc(C)c(Cl)c2)cc1C,inactive: 20%
12,Cc1cc(C(=O)COc2ccc(C#N)cc2)c(C)n1-c1ccc2c(c1)OCO2,inactive: -5.4%
13,CCc1cccc(NC(=S)Nc2ccc(CN3CCOCC3)cc2)c1,inactive: 17.1%
14,CN(C)CCOC(=O)c1sc2ccccc2c1Cl,inactive: -6.5%
15,Cc1cc(-c2nn(-c3ccccc3F)cc2CN2CCCC(CO)C2)c(C)s1 (stereo unspecified),inactive: 11.5%
16,COc1ccc(/C=N/NC(=O)Cn2cnc3c2c(=O)n(C)c(=O)n3C)cc1,inactive: -1.81%
17,CCn1c2ccccc2c2cc(NC(=O)COC(=O)c3cccc(S(=O)(=O)NC)c3)ccc21,inactive: 12%
18,COc1ccc(-c2ncn(CCC#N)c2[N+](=O)[O-])cc1,inactive: 8.98%
19,Cc1cc(C)c(Cn2c(=O)n(CCCC(=O)NCc3ccc4c(c3)OCO4)c(=O)c3sccc32)c(C)c1,inactive: 7.66%
20,Cc1ccc(Nc2ncnc3sccc23)c(C)c1,inactive: 26.9%
21,C/C(=N/NC(=O)CNC(=O)c1cccnc1)c1ccc([N+](=O)[O-])cc1,inactive: -1.9%
22,O=C(Cn1cnc([N+](=O)[O-])c1)Nc1ccccc1C(F)(F)F,inactive: 11.6%

row,Compound,growth rescue (activation)
1,CN1C(=S)N(c2cccnc2)C(=O)/C1=C\c1ccc(N(C)C)cc1,inactive: -8.53%
2,Cc1ccc(N(CC(=O)NC2CCCC2)C(=O)CNC(=O)c2cccs2)cc1C,inactive: -16.7%
3,CCOc1ccc(NC(=O)C2CCCN(S(C)(=O)=O)C2)cc1 (stereo unspecified),inactive: -4%
4,Cc1cccnc1NC1CCCCC1,inactive: -22.7%
5,CCN(CC)S(=O)(=O)c1ccc(N2CCOCC2)c(NC(=O)c2ccco2)c1,inactive: 12.2%
6,CC(=O)c1c(C)[nH]c(C(=O)OCC(=O)Nc2cccnc2Cl)c1C,inactive: 0.754%
7,CCOc1cc(C(=O)NC(=S)Nc2ccc(Cl)c(C(=O)O)c2)cc(OCC)c1OCC,inactive: -63.4%
8,Oc1ccccc1CN(Cc1ccco1)CC(O)COCc1ccc(Cl)cc1 (stereo unspecified),inactive: 3.43%
9,CCOC(=O)C1CCN(c2ncnc3c2[nH]c2cccc(OC)c23)CC1,inactive: -2.75%
10,CCOC(=O)C1CCN(S(=O)(=O)c2ccc(OC)c(C(=O)N3CCCCCC3)c2)CC1,inactive: -4.67%
11,COc1ccc(NS(=O)(=O)c2ccc(S(=O)(=O)N3CCCC3)cc2)cc1,inactive: -8.05%
12,CCCn1c(N)c(N(CCOC)C(=O)c2ccc(F)cc2F)c(=O)[nH]c1=O,inactive: -17.3%
13,CC(C)CCN(C(=O)Cc1ccccc1F)c1c(N)n(Cc2ccccc2)c(=O)[nH]c1=O,inactive: 11.8%
14,CCc1ccc(OCC(=O)NC(C)(C)C)cc1,inactive: -7.93%
15,CC(=O)c1cccc(-c2cnc3c(NC=O)cc(-c4cccc(C(=O)N(C)C)c4)cn23)c1,inactive: 12.1%
16,CC1=CC(C)(C)n2c(O)c(N=N)c3c(C)ccc1c32,inactive: 1%
17,O=C(Nc1nnc([C@H]2C[C@H](O)[C@@H](CO)O2)s1)C(c1ccccc1)c1ccccc1,inactive: 8.91%
18,CSc1ccc(/C=N/n2c(C)nnc2C)cc1,inactive: -6.96%
19,Cc1cc(C(=O)OCC(=O)N2C(C)CCCC2C)c2ccccc2n1 (stereo unspecified),inactive: -18.5%
20,COCCCNC(=O)CN(c1cc(Cl)ccc1OC)S(=O)(=O)c1ccc(C)c([N+](=O)[O-])c1,inactive: -0.359%
21,COc1ccc(NS(=O)(=O)c2cc(NC(=O)c3ccco3)ccc2N2CCCCC2)cc1,inactive: -13.8%
22,COc1cc(C2C3=C(CCCC3=O)Nc3c2c(C)nn3-c2cccc(C)c2)cc(OC)c1O (stereo unspecified),inactive: 12.2%

row,Compound,growth rescue (activation)
1,Cc1ccc(-c2nc3c4c(-c5ccccc5)c(-c5ccccc5)oc4ncn3n2)cc1,inactive: 5.71%
2,Cc1ccc(SCc2ccc(C(=O)Nc3ccccc3Br)cc2)cc1,inactive: 18.4%
3,O=C(c1ccc(Cl)c(S(=O)(=O)N2CCCC2)c1)N1CCN(c2ccccc2F)CC1,inactive: 24.9%
4,O=C(NNC1CC(=O)N(c2ccc(Br)cc2)C1=O)c1ccccn1 (stereo unspecified),inactive: 3.73%
5,C/C(N)=C(/C#N)C(=O)COC(=O)C1Cc2ccccc2CN1S(C)(=O)=O (stereo unspecified),inactive: -7.81%
6,Cc1ccc(CN2CCN(CC3CC4C=CC3C4)CC2)cc1 (stereo unspecified),inactive: -3.62%
7,Cc1nnc(C)n1/N=C/c1ccccn1,inactive: -1.54%
8,Cc1c(/C=C(\C#N)C(=O)NCc2ccccc2)cc(C#N)n1C,inactive: 9.84%
9,O=C(C1CCN(S(=O)(=O)c2cccs2)CC1)N(c1ccccn1)C1CCCCC1,inactive: 0.34%
10,CS(=O)(=O)c1cccc(C(=O)OCC(=O)c2ccc3c(c2)OCCO3)c1,inactive: 21.9%
11,O=[N+]([O-])c1cc2c(cc1C=Nc1ccccc1)OCO2,inactive: 8.94%
12,COc1ccc2c(C)cc3nncn3c2c1,inactive: 8.62%
13,CCc1nc2sc3c(O)cc(=O)[nH]c3c2cc1C,inactive: -2.97%
14,COc1ccc(S(=O)(=O)N2CCOCC2)cc1NC(=O)Cc1c(Cl)cccc1Cl,inactive: 5.28%
15,COc1ccc(C2=NN(C(C)=O)C(c3cccs3)C2)cc1OC (stereo unspecified),inactive: -0.982%
16,COCCN(CC(=O)Nc1cccc(C)c1C)C(=O)c1ccc2c(c1)OCO2,inactive: 14.1%
17,C/C(=N\Nc1ccc(C(F)(F)F)cn1)c1ccc(S(=O)(=O)NCc2ccco2)cc1,inactive: -12.5%
18,Cc1ccc(NC(=O)COC(=O)c2cccc3c(=O)c(C)c(-c4ccccc4)oc23)cc1,inactive: -0.863%
19,COCCNC(=O)C1CCCN(C(=O)COCc2ccccc2)CC1 (stereo unspecified),inactive: -6.47%
20,CCN(CC)CCCNc1nc2ccccc2c2nc(-c3ccncc3)nn12,inactive: -10.2%
21,O=C(NCC1CC1)C1Cc2c(-c3ccc(Cl)cc3)ccnc2O1 (stereo unspecified),inactive: 18.6%
22,Cc1ccc(NC(=O)CCC(=O)c2ccc(F)cc2)cc1Cl,inactive: 14.7%

row,Compound,growth rescue (activation)
1,O=C(COC(=O)C12CC3CC(CC(Cl)(C3)C1)C2)N1CCCCC1,inactive: -6.22%
2,NC(=O)c1nsc(C(=O)N(c2cccc(F)c2)C(C(=O)NC2CCCC2)c2ccc(O)cc2)c1N (stereo unspecified),inactive: 13.1%
3,CCOC(=O)C1(CCCc2ccccc2)CCN(C(=O)c2cnc(C)cn2)CC1,inactive: -5.06%
4,CC(C)N1C(=O)NC2(c3ccccc3)N(C)C(=O)N(C)C12c1ccccc1 (stereo unspecified),inactive: -1.15%
5,Cc1cccc(C(=O)C2CCN(S(=O)(=O)c3ccc(C(=O)O)cc3)CC2)c1,inactive: 8.85%
6,CCC(C(=O)NCc1ccncc1)c1ccccc1 (stereo unspecified),inactive: -10.9%
7,Cc1nc2ccc(NC(=S)N3CCC(C)CC3)cc2nc1C,inactive: 9.63%
8,Cc1cccc(Cc2nnc(CCC(=O)N(C)C3CCOC3)o2)c1 (stereo unspecified),inactive: 8.42%
9,COc1ccccc1C(=O)Nc1nnc([C@@H]2C[C@H](O)[C@@H](CO)O2)s1,inactive: -0.326%
10,COc1ccc(N(C(=O)c2ccco2)C(C(=O)NC2CCCC2)c2ccccc2)cc1 (stereo unspecified),inactive: 9.52%
11,COc1ccc(OC)c(NC(=O)CC2C(=O)NCCN2C(=O)c2ccccc2)c1 (stereo unspecified),inactive: 12%
12,COc1ccc(Cn2c(-c3ccccc3)nc3c(c(=O)c4ccccc4n3C)c2=O)cc1,inactive: 13.1%
13,O=C(Cc1sc(Nc2ccccc2)nc1-c1ccccc1)NCc1ccccc1,inactive: 6.95%
14,CN(c1ccccc1)S(=O)(=O)c1ccc(C(=O)Nc2nnc(C3CC3)s2)cc1,inactive: 22.1%
15,COc1ccc(-c2nn(CCC(=O)O)cc2/C=N/NC(N)=S)cc1,inactive: 10.5%
16,CCOC(=O)C1C(c2ccc(C(=O)O)cc2)NC(=O)NC1(O)C(F)(F)F (stereo unspecified),inactive: 0.53%
17,COc1ccc([N+](=O)[O-])cc1C(=O)Nc1ccc(OCC(=O)N2CCOCC2)cc1,inactive: 17.2%
18,O=P(Cc1ccncc1)(c1ccccc1)c1ccccc1,inactive: 12.3%
19,COc1ccc(/C=C2/C(=O)N(c3nc4ccccc4s3)N=C2CSc2ccc(Cl)cc2)cc1,inactive: -18.3%
20,O=C(Nc1ccc(Cl)cc1)C1CCN(C(=O)c2cccs2)CC1,inactive: 18.6%
21,O=C(CC(Cc1ccccc1)C(=O)O)Nc1ccc(Cl)c(Cl)c1 (stereo unspecified),inactive: -15.8%
22,COc1cc([N+](=O)[O-])cc([N+](=O)[O-])c1NC(=O)N1CCOCC1,inactive: 22.1%

row,Compound,growth rescue (activation)
1,CCOc1ccc(S(=O)(=O)Nc2ccccc2C(=O)N2CCOCC2)cc1,inactive: 4.64%
2,Cc1cccnc1NC(=O)C(c1ccccc1)c1ccccc1,inactive: -2.51%
3,COc1cc2c(cc1OC)CN(CC(=O)Nc1ccc(F)cc1F)CC2,inactive: 8.27%
4,C=CCc1cc(C=O)cc(OCC)c1O,inactive: -1.84%
5,CCOC(=O)C1=C(C)NC(=S)N(C=O)C1c1ccccc1 (stereo unspecified),inactive: 5.98%
6,NC(=O)c1nn(-c2ccccc2)nc1NC(=O)CN1CCCC1,inactive: 26.2%
7,O=C(NCCCN1CCc2ccccc2C1)C1CCN(S(=O)(=O)N2CCC3(CC2)OCCO3)CC1,inactive: -2.99%
8,CCN(C(=O)CN1C(=O)c2ccccc2Sc2ccc(C(=O)OC)cc21)c1cccc(C)c1,inactive: 4.32%
9,CCCn1nnc(NC(=S)NC(=O)c2cccs2)n1,inactive: -2.77%
10,Cc1nccc2[nH]c(=O)c(C(=O)NC3CCCCC3C)cc12 (stereo unspecified),inactive: 12.5%
11,COC(=O)[C@H](CC(C)C)NC(=O)NC1CCCc2ccccc21 (stereo partly specified),inactive: 4.41%
12,Cc1cc(NC(=O)c2ccccc2)n(-c2ccccc2)n1,inactive: -2.31%
13,O=C(CCC(=O)c1ccc(Br)cc1)Nc1cccc(C(F)(F)F)c1,inactive: -8.31%
14,CCOC(=O)Cn1nc(C)c(NC(=O)c2ccc(Br)o2)c1C,inactive: -9.18%
15,CCCCn1c(SCC(=O)NC2CCS(=O)(=O)C2)nc2cc(S(N)(=O)=O)ccc21 (stereo unspecified),inactive: 0.693%
16,CN(C(=O)CSc1nc2ccccc2c(=O)n1C)C1CCS(=O)(=O)C1 (stereo unspecified),inactive: 8.19%
17,Cc1ccc(C)c(SCC(=O)OCC(=O)NCc2ccccc2)c1,inactive: 19.5%
18,O=C(/C=C/c1ccc(F)cc1)Nc1cccc(S(=O)(=O)Nc2cccc(C(F)(F)F)c2)c1,inactive: 19.9%
